Data reported in the supplement of paper PMC11417369.
± gives the standard deviation of the averaged measurements. This is one part of the list.

Each sequence was assayed on PfAP2-EXP AP2 domain (GST-tagged) (assay: gcPBM binding intensity (ln(normalized median fluorescence intensity)); higher = stronger DNA binding).
How it was run: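 DNA-binding domains from P. falciparum, fused to GST and produced in E. coli, were put on an Agilent 4 × 180k double-stranded probe array for 1 h in 1× PBS holding 1% milk, 0.2 mg/ml BSA, 0.5% salmon testes DNA and 0.03% Triton X-100. Probes were primer-extended, 36 bp long and drawn from intergenic genomic regions, with negative controls included. After Alexa488 anti-GST antibody detection and a 488 nm scan, binding intensity was set as the highest Masliner-normalised natural-log median intensity across replicate spots of either probe orientation.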

Sequence | gcPBM binding intensity (ln)
TTATGGAAAAATATAACACACAATGATTTTTTATAA [CACACA_site1831] | 8.26 ± 0.35
ATTTATATAAAATTAAAATAATACAAATTTATTCAT [GTGCAC_negctrl_site305] | 8.12 ± 0.46
TTTTCGCTTTTATAAAATTATATGAAAAAACTAAAA [XGTACX_negctrl_site139] | 8.22 ± 0.47
CCACTAAAGGCATATACACACATTTTTTAAATTGCC [CACACA_site2839] | 8.67 ± 0.47
TACACAAAAATAAACACACACACATATAAATAAATA [CACACA_site6599] | 8.67 ± 0.52
TATTGTAAAAAAGCAAAATTTATCACCTCCTTATTT [CACACA_negctrl_site172] | 8.23 ± 0.4
TATAACTATGGGTGTACACATTAATCGTTTTTCTTT [CACACA_site5196] | 8.58 ± 0.3
TGTAATACATGTTGTTGTACAATATCTTTAACTTTT [XGTACX_site1219] | 8.62 ± 0.38
TTTTTTACATTCTGCACACAATTTATTTTTTTTTTT [CACACA_site4188] | 8.8 ± 0.34
ATGAATGAATACGTTTTACACACTTGAATATAATTT [CACACA_site8237] | 8.53 ± 0.4
AACATAACAAAAAAAAAAAAAAATATATATATATAT [TGCATGCA_negctrl_site370] | 10.2 ± 0.41
TATTTCACAAAAAAAAAAAAAAAAAAGAAGCAAAAA [CACACA_negctrl_site1040] | 8.32 ± 0.47
GTATATTGTACCATCACACATGTAAAACATAGATGT [CACACA_site5359] | 8.51 ± 0.26
TCCTTAAAAAAACCTTAACACACATAAACTATAATT [CACACA_site9001] | 8.4 ± 0.45
TTTTTTTTTAAGTTTGCACACATGGAAGACAAAAAT [CACACA_site2505] | 8.9 ± 0.37
TAATACATAAATAATGTGCACATGGAAATATATCTT | 9.04 ± 0.28
AAAAAAAAAAAAAAATCACACACAATATGAATTTAT [CACACA_site8100] | 8.28 ± 0.38
TATTTTATATACAGTGGTACTTTTTTTTTTTTTTTT [XGTACX_site2475] | 8.44 ± 0.29
AATTGCTTCAAAATTAAACACACACTAATAAAAAAA [CACACA_site8855] | 8.56 ± 0.49
AAAAAAAAAAAAAAAACACACATTTGAAGAAAAAAA [CACACA_site7389] | 8.57 ± 0.26
ACATATATATTATAAGCATGCATGAGAAAATTTTTA [TGCATGCA_site1054] | 9.4 ± 0.33
TAGAAACTATGTAATGCACACCAAAATAAAATTATT [CACACA_site8578] | 8.56 ± 0.41

Sequence | gcPBM binding intensity (ln)
TTTTAAAAAATAAAATATTATTGAAGTAAAATATGA [CACACA_negctrl_site758] | 8.37 ± 0.39
TTTTGGATACTTCATTTGTCCTGTTTTTTTTTTTTA [CACACA_negctrl_site399] | 8.63 ± 0.55
AAAATATATCAAAACACACTCACATATAATACTTAC [CACACA_site6031] | 8.57 ± 0.26
TATATACTTATATACTGTACTCATCATCTTTTAAAG [XGTACX_site6099] | 8.55 ± 0.43
TAATATATCTATAATACACACTATTCTAATCACATA [CACACA_site6731] | 8.29 ± 0.32
TTTTTTTTTTTTTAAACATGCAAAATATATAATTTT [TGCATGCA_site633] | 8.46 ± 0.36
ATAATAAACATATATGTACACACATATACATATATA [CACACA_site8924] | 8.47 ± 0.21
AACACACACATATATATATATATATATATATATATA [GTGCAC_negctrl_site573] | 10 ± 0.47
TTTTTAATATTGTATGCATGTCGTAATAAAAAATTT [TGCATGCA_site259] | 8.71 ± 0.23
ATATACTATTAACCACATATGTGTGTTAATTTATAT [GTGCAC_negctrl_site315] | 8.53 ± 0.27
ATATTAATTATAACTTGTACGTAAAAGGAAAACAAT [XGTACX_site3269] | 9.1 ± 0.41
TGCTATTTCATATTCTGTACTAAAACAAGATAATAA [XGTACX_site3852] | 8.56 ± 0.3
TTGAACCCCACTAACACACACACGCACGCTCAGAAA [CACACA_site2983] | 8.57 ± 0.51
ATATATATATATAGAAGTACTCTTATATATTTTATA [XGTACX_site1384] | 10 ± 0.63
AAAAAAAAAAAAAATACACACACATAAAAAAAAAAA [CACACA_site8555] | 8.47 ± 0.52
GATATGGAATATATGTGTACATATATATATATTATA [XGTACX_site1724] | 8.39 ± 0.26
CAAATTTTTAAAAATGCATGTTCATCCATCCCATAT [TGCATGCA_site467] | 8.8 ± 0.52
TTTGTATGATCATAAAGTACTAATTTACATTCAGCA [XGTACX_site8596] | 8.41 ± 0.44
AATTATATACCATGCACACAAATATTCATACAGGAA [CACACA_site4057] | 8.63 ± 0.47
ATATATGAAAATATATGTACACAACATATAAAATAG [XGTACX_site5132] | 8.73 ± 0.27
TTTTCATTCTTATATAAATATTATTTTATATAAAAT [GTGCAC_negctrl_site674] | 8.26 ± 0.3
AAAAATATATATATATTTCTTCTTTGTTAAAATGTA [CACACA_negctrl_site1459] | 8.31 ± 0.44

Sequence | gcPBM binding intensity (ln)
GTAGAATCAGTATTCACACATAAATGTATCCAAATG [CACACA_site5395] | 8.55 ± 0.4
GGGAATATATTCAATTGTACATTCTTATTTTATCCA [XGTACX_site8480] | 8.81 ± 0.43
ACGCACGAAATAAATACATGCATATTGTAAAAATTA [TGCATGCA_site310] | 8.6 ± 0.21
TCTTTTTTTTTACATACTTTTTTCCTTTTTTTTTTA [CACACA_negctrl_site1429] | 8.63 ± 0.49
TATTTAATGCAAAAACGTACATAAATAACATTCACA [XGTACX_site5356] | 8.57 ± 0.4
TATAAACACCCATATAAACACACATACATACATACA [CACACA_site8791] | 9.27 ± 0.27
TATATATATATTAGTGGTACAAGATTTTTTTCTTTT [XGTACX_site4619] | 9.8 ± 0.085
TTTTTTCATAAATAATGTACATATATATATATATAT [XGTACX_site3620] | 10.1 ± 0.28
CTAGACTTTTTACAATGTACATATTTATGTATTATT [XGTACX_site1833] | 8.62 ± 0.25
TCTTGTAGATATATTTGTACATATATTTATGGGTAT [XGTACX_site1139] | 8.69 ± 0.35
AAAATTTTTTACTTTACACACATTTTGTATATTTTG [CACACA_site1730] | 8.89 ± 0.28
AAAAAATATATATTAACACACACACTAATAAAAAAA [CACACA_site8366] | 8.65 ± 0.54
ATATTATTTATAAGTTGTACGGTATAATATAATATA [XGTACX_site5371] | 8.52 ± 0.41
GTTCAAAATATGAACACACACATATATATATATATA [CACACA_site2057] | 10.2 ± 0.51
TTTCGTAATATGCGTGTGCACAATGAGTCCATATCT | 8.96 ± 0.23
ATCTACATATATTATTGTACATTGTTAAAAATTTAT [XGTACX_site7769] | 8.58 ± 0.34
TAAAATATAATTAGCACACATATATAAAATATATAT [CACACA_site4093] | 8.22 ± 0.3
TTTTTTTTTTTTTGGGGTACATTTTAATTAATATTA [XGTACX_site4866] | 8.56 ± 0.71
ATATATTGTATGTGCTCACACATGTTTCGATATTAT [CACACA_site4336] | 8.65 ± 0.35
GTTGTTTCTATAAATTGTACTTAAATATAATTATAT [XGTACX_site585] | 8.86 ± 0.26
GTAAATATGTTTATTAGTACACATATGAAAATAAAT [XGTACX_site5820] | 8.78 ± 0.41
AAAATCACAAGACACACACACACAAAAAAAAAAAAA [CACACA_site6791] | 8.29 ± 0.47

Sequence | gcPBM binding intensity (ln)
AGTATAAAATAAATGTGTACACAAGAAAATATGTTA [XGTACX_site8381] | 9.06 ± 0.42
AAAATATTTTAATGTTGTACATTAATATATTATATA [XGTACX_site2513] | 8.12 ± 0.32
ATATATATATGTATGTGTCCACAAGGAGATATATAT [XGTACX_site783] | 9.59 ± 0.071
AGTAAATAATAGATCGCATGTAATAACTAGTAGGAA [TGCATGCA_site948] | 9.18 ± 0.86
ACAATTGAAGAAATACGTACATAAAGAAAAACTAGT [XGTACX_site820] | 9.16 ± 0.51
ATTATAAAGACATATACACACATACGTACATACATA [CACACA_site5893] | 8.73 ± 0.38
AACAGATAAAAGGGTACACACATATATACCTGTACA [CACACA_site4285] | 8.58 ± 0.28
TGTACATTCGGAGTAAAAAAAAATTTATACAATTAC [CACACA_negctrl_site1451] | 8.45 ± 0.44
TACATAAATATATGTGTGCACAATTTCGTATATTTA [GTGCAC_site9859] | 8.86 ± 0.31
TGTATTAAATTTTGAACACACAAAATAAAACATATA [CACACA_site1672] | 8.56 ± 0.47
TAATAAAAATAAAATTGTACTAATAACATTTCATTA [XGTACX_site3703] | 7.89 ± 0.3
TATATAACTGTCTTCAGTACACAATAAATAAAAATA [XGTACX_site8856] | 8.64 ± 0.42
TTTCAAAAAAATAGCTATATTTATATTAATGCACGA [TGCATGCA_negctrl_site63] | 9.72 ± 1
AAAGGTGTATATAATACACACGTGTGATTAAAATTG [CACACA_site8104] | 8.73 ± 0.35
AACTTTGAGACATAGTGTACTTACACAATCTTAATA [XGTACX_site3712] | 8.32 ± 0.34
ACATTTTTTTTTTTTTTTCTTTTTCTTTTTCTTTTT [CACACA_negctrl_site1295] | 8.36 ± 0.67
CATATTTGATACAAGTGTACTTTATTTAAAAATTCT [XGTACX_site8408] | 8.37 ± 0.28
AACCTAAGCATTCTTCAAATTATATATGTAAAATGA [CACACA_negctrl_site261] | 8.22 ± 0.56
TCGTATCTATTGAGGGTGCCTCTATAATTGATACAA [GTGCAC_site9636] | 8.31 ± 0.4
TAATATAATATATGCACACAAATATGTATTTATGTG [CACACA_site5210] | 8.32 ± 0.35
GAAAAAATAAAATAAAGTACATAACTATAATAAAAA [XGTACX_site4807] | 8.64 ± 0.28
ATATATAAACACTCTTGTACATAATAATGTATATAT [XGTACX_site2451] | 8.45 ± 0.31
